# From the supplement of paper PMC11417369
# ± gives the standard deviation of the averaged measurements. The list shows a part of the results.
# Tested on: PfAP2-G AP2 domain (GST-tagged)
# Assay: gcPBM binding intensity (ln(normalized median fluorescence intensity)); higher = stronger DNA binding
# Procedure, shortened: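 Using an Agilent 4 × 180k array, primer-extended double-stranded 36-bp intergenic genomic probes and negative controls were exposed for 1 h to GST-fused P. falciparum DNA-binding domains expressed in E. coli. Binding was carried out in 1× PBS with 1% milk, 0.2 mg/ml BSA, 0.5% salmon testes DNA and 0.03% Triton X-100, and protein was detected with Alexa488 anti-GST antibody and a 488 nm scan. Binding intensity is the highest Masliner-normalised natural-log median intensity across replicate spots of either probe orientation.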
row,Sequence,gcPBM binding intensity (ln)
1,TCTTTTTGCATGTGTGTGCGCACAAAATACACAAAA [GTGCAC_site9718],11.1 ± 0.74
2,TGTTTGAATATAATCACACATTTATATAAAAAGTTA [CACACA_site5237],9.665 ± 0.007
3,TTATGAAAATATTTTTTTCGTTTGATGTATATGTTT [CACACA_negctrl_site1556],9.78 ± 0.15
4,TATAAACATAAAACCAGTACATATATATTTTTCTTC [XGTACX_site212],10.9 ± 0.69
5,ATATTTAATTCATCATGTACACAAATAAGAAACAAA [XGTACX_site8076],11.4 ± 0.78
6,TGAAAATGGGAACCGTGTACAGGGCAGTTATAGGGG [XGTACX_site2950],11.5 ± 0.82
7,AAAAAATATAAATATGTAAAAAGAGAAAAAAAAAAG [GTGCAC_negctrl_site9],9.77 ± 0.19
8,AACAACATTTGATAAACACACAGAAGTATAAATATA [CACACA_site5327],10 ± 0.014
9,TACTTATTAGACTATTGTACATACATTATTAATATT [XGTACX_site7849],10.9 ± 0.35
10,TGATAACCAAAAAGGGGTACATACACAAAAAAATAC [XGTACX_site1254],11.7 ± 0.91
11,TAAAAAATTAAGCAACGTACAAATGAAAAGTATAAT [XGTACX_site1058],11 ± 0.5
12,TAAAATTTTAACAAAAAAAAAAAAAAAAAAAGAAAA [CACACA_negctrl_site1335],9.77 ± 0.12
13,TAACAATAACTTTATACACACATAATATAAATATAT [CACACA_site7635],9.87 ± 0.014
14,CAAAAACATACCTACACACACAATATGTATATATAA [CACACA_site3514],9.955 ± 0.064
15,TATATCATCATGTATGTACACACATACATATATTAT [CACACA_site8387],11.2 ± 0.72
16,TACGTATTATAAATATGTACATATAATATGTATATA [XGTACX_site468],11.2 ± 0.62
17,ATAAAGAAAAATAGAAGTACATATATGCATGTTAAT [XGTACX_site4480],11.3 ± 0.72
18,AACAATAAAAATAATTGTACAAGTCTAAAAAAAATT [XGTACX_site20],11 ± 0.53
19,ATAACAAAATAATAATGTACGTATAAATATAATTTA [XGTACX_site6049],11.5 ± 0.92
20,AAAATGAATAAAAATACACACATATATGTTATTCTC [CACACA_site2671],9.755 ± 0.078
21,AAATTGAGACAACAGGTGCATATAAATATACAGTGT [GTGCAC_site9634],10.2 ± 0.11
22,TAACAATATCTAGATACACACACATATCTCTCAATC [CACACA_site8122],9.985 ± 0.064

row,Sequence,gcPBM binding intensity (ln)
1,TTAATACCCGGACACACACACACAAAATAAAATACA [CACACA_site4296],11 ± 0.69
2,ATTTATTTATTTAGCTGTACATTTATACAGAACGAT [XGTACX_site3336],11.2 ± 1
3,CCAACATGCAGACGCACACACAAAAAAAGCATGCAT [CACACA_site74],10.2 ± 0.22
4,AATAATATATATATTACACACTAATTGTATTATATA [CACACA_site448],9.8 ± 0.014
5,AATTTTTGTTACAAGATGCACTTAATTTTTCTAAAT,10.1 ± 0.18
6,AATAAAAATTCAAGTTGTACTTTTTTAAAAATACAA [XGTACX_site3949],11.6 ± 0.87
7,CATACATTATAAGATACATGCATATATCTGAACATA [TGCATGCA_site797],9.67 ± 0.13
8,ATGTGGAAATAGAGCACACATATATATAATATATAT [CACACA_site884],10 ± 0.11
9,GCAAAACATTTTTAAAATAAAAATAATAAAATATAT [CACACA_negctrl_site219],9.86 ± 0.14
10,AACGAAGCATAAAATGTTATGTATATATATAAATAT [TGCATGCA_negctrl_site304],9.67 ± 0.099
11,TACCAAAAAAAAAAAATAATAATAAAAAAAAAAAAA [TGCATGCA_negctrl_site11],9.485 ± 0.049
12,ATCATTTTGTGTTCAAGTACATAATGTTTTACACAA [XGTACX_site3565],11 ± 0.61
13,AATGATTTTAAATGAACATAATTTATATTCATAACA [GTGCAC_negctrl_site256],9.64 ± 0.12
14,GTGTGCCAAATTAGCACACACATATATACATGAATT [CACACA_site7346],10.2 ± 0.23
15,TATTCATTAAACCATACACACATAATTTTTTTATAA [CACACA_site4618],9.895 ± 0.078
16,ATATATTATATAAAAAGTACTAAAATAGTAAGATGT [XGTACX_site7493],11.2 ± 0.7
17,ACACATAATATAAAGGTGCTATATTGTATTCATTTT [GTGCAC_site9457],9.69 ± 0.23
18,TTTTCATACACTGCTAGTATATACTACCACTGACAT [GTGCAC_negctrl_site514],10.4 ± 0.23
19,AAACATATATTAAGCACACACAAACAAAAAAACAAA [CACACA_site2549],10.2 ± 0.27
20,TGCAAAAAAAAAAAAAAAAAATATATGGAAATATAT [GTGCAC_negctrl_site257],9.51 ± 0.18
21,ACATTGAACAAAATAGTAAGCACATATATATATATA [GTGCAC_negctrl_site679],10.1 ± 0.37
22,TGATTCATTGATAAGGGTACATTTATAATTATGATA [XGTACX_site6319],11 ± 0.61

row,Sequence,gcPBM binding intensity (ln)
1,ACGTATCAATTTATTGGTACACATAAATATATATAT [XGTACX_site5556],11.3 ± 0.92
2,ATGATAATTTTTTTCTCACACACAAATATTTTAATC [CACACA_site3665],9.915 ± 0.035
3,ATGTTCCATTTTACTTGTACTAATTTTTTCCTATCT [XGTACX_site6474],11.3 ± 0.71
4,TATATTATTTTCTTTTGTACACATATATATCAGTGT [XGTACX_site664],11.3 ± 0.59
5,CAATAATATATATATTGTACATTTTTTTTTATTATT [XGTACX_site3149],11 ± 0.61
6,AAAGATTCTTTGAATTGTACAAATATATTTACTCAC [XGTACX_site8772],10.7 ± 0.33
7,ATAATAATAAAGTATGCATGCATATAATATAATATA [TGCATGCA_site796],9.79 ± 0.11
8,TTTTTATTGCAATACTTATATTTTTTTATGATTAAA [TGCATGCA_negctrl_site147],10.1 ± 0.16
9,AAAAAATCACAACACACACACACACTAATAAAAAAA [CACACA_site8410],10.1 ± 0.21
10,ACTGTAAATTTATTCGGTACACATATAAATAATATT [XGTACX_site7346],11.1 ± 0.64
11,AAATCACATAAAACATAATCAAATGAAATATAATCA [CACACA_negctrl_site123],9.47 ± 0.38
12,TAAATATTATTATATACATGCACTTACAACTTTTTT [TGCATGCA_site877],10.04 ± 0.092
13,TATTGTAAAAAGATTACACACGTTCTATATACTTTT [CACACA_site5379],9.88 ± 0.26
14,AATAAAAAAATATATTGTACTAATAATTATATGTTT [XGTACX_site2246],11 ± 0.67
15,ATTATTTTTAAAAATTGTACAGTATAAGAGAGAAAT [XGTACX_site7094],11.2 ± 0.61
16,ACAGTAGCCAGTAACTGTACGGATTGTAGAGATCAG [XGTACX_site4873],11.3 ± 0.7
17,ATAATATTTAGGTGTGCACACAAACATACATATATA [CACACA_site9120],10.7 ± 0.4
18,TTAATGGCAAAATAGGCACACACACCGATACATATA [CACACA_site8263],10.2 ± 0.15
19,TGGAAATTCTCAGGAGTGCATATTTGCAGTTTACGT [GTGCAC_site9768],10.3 ± 0.25
20,TAGATACATAAAAGTGGTACATATATATATATATAT [XGTACX_site6263],11.4 ± 0.97
21,AATATTTATATTTACACACACATAATACCTATATGT [CACACA_site6167],9.9 ± 0.11
22,ATAATAAATTATTATGTACACACATAATAGTATATA [CACACA_site8538],11.3 ± 0.88

row,Sequence,gcPBM binding intensity (ln)
1,ATGGTTAAAAAAAGCATACACACTATCCTCTTTGCT [CACACA_site2552],9.925 ± 0.021
2,TTTGTTGACGGACACACACACATACAGATATATATA [CACACA_site5292],11.4 ± 1
3,CCGTTGAACATATATGCACACACATAAAATAAAAAA [CACACA_site8761],10.2 ± 0.26
4,TTTTTGTCTGCATACGCACACACGTGTACCATCTTA [CACACA_site1173],11.2 ± 0.7
5,TGGTTACTGTCATTAGTTATTTCTTGTTGACAATTA [CACACA_negctrl_site416],9.97 ± 0.014
6,ATATTTTTTTTTTTTTGTACATATATCATTATATAT [XGTACX_site866],10.8 ± 0.47
7,GAGAGTAAAACAAATATACACACCATAAAGTTATAA [CACACA_site1686],9.93 ± 0.16
8,ATTTCGTTCTTTTATGCACACTCAACATATAAATTA [CACACA_site8322],10.5 ± 0.38
9,ATATATATATATAAATGTACATATGTATAATTCATA [XGTACX_site6679],10.9 ± 0.53
10,TTCTCACTTTTAAATTTTATTCAAAAATAAGGAAAG [XGTACX_negctrl_site444],9.89 ± 0.34
11,TAGAATGTATGTAGTGCACACCTCTATAATATATTA [CACACA_site1873],10.6 ± 0.45
12,AACTTTGGCAAACACACACACACACCCACACCCACA [CACACA_site588],10.5 ± 0.45
13,TATTTTTCCATATGCACACACACCGTATCTAGAATA [CACACA_site6654],10.3 ± 0.22
14,TACATAAACATTTATACACACATTATGTATACATAT [CACACA_site405],10.04 ± 0.035
15,TTTTTGTAATGACACACACACAAACAGAAAAAATAA [CACACA_site7062],10.4 ± 0.35
16,TTTTTTTTTTGCACGTGTACATAAAAATATATATAT [XGTACX_site3116],11.6 ± 1
17,AAAATATATTCAACTTGTACATATATATATATATAT [XGTACX_site7629],11.1 ± 0.76
18,ATATATGTGCTAAAATGTACATAGTATAATATATTT [XGTACX_site1949],10.9 ± 0.37
19,TTTAATCATTTTAGCTTACACACAAAATTTTGTTAT [CACACA_site2938],10.015 ± 0.007
20,ATATTTAAGATTTAATCACACACATATATATTATAT [CACACA_site8946],9.83 ± 0.028
21,ATAAAATAAAGGAAAAATATTAAGTTTTAAGAAAAT [CACACA_negctrl_site1066],9.66 ± 0.2
22,TTATATATTTTGATTGCACACAGAATTTAAATCATG [CACACA_site8735],10.2 ± 0.12
